# Reference: ChEMBL document CHEMBL4888484, “Replenishing the malaria drug discovery pipeline: Screening and hit evaluation of the MMV Hit Generation Library 1 (HGL1) against asexual blood stage Plasmodium falciparum ,using a nano luciferase reporter read-out” (2022)
# The whole screen tested about 150,000 compounds, of which about 540 (0.36%) showed an effect of 50% or more. Some of the results follow.
# System: Plasmodium falciparum
# Assay: Primary screen in NF54 nanoGlo assay, in single point, at 2uM, 72h; a lower Z score goes with more inhibition
# Type: functional, Erythrocyte
# Conditions: timepoint 72 hour
SMILES,% Inhibition,Z score
CC(=O)N[C@H]1CCN(Cc2cc3ccc(C)cc3[nH]c2=O)C1,-8%,1.31
Cc1cccc(C(NC(=O)[C@@H]2CCC(=O)N2)c2cccc(C)c2)c1,-3%,0.64
CC(C)Cn1ncc(-c2nc(-c3ccncc3)no2)c1C(F)F,-2%,0.33
CC(=O)Nc1ccc(NC(=O)c2cn3c(n2)C(=O)N[C@H](c2ccc(F)cc2)C3)cc1,-3%,0.41
Cc1oc(-c2ccccc2F)nc1C(=O)OCC(C)(C)C1OCC(C)(C)CO1,-13%,1.61
CCOc1ccc(-n2c(CN3CCN(C(=O)Nc4ccc(F)cc4)CC3)nc3cccnc32)cc1,3%,-0.37
CC(C)c1ccc(-c2cc3n(n2)C[C@@](C)(C(=O)NC2CCCCC2)N(Cc2ccccc2)C3=O)cc1,20%,-3.19
COc1cccc(CC(=O)NC[C@@](O)(c2ccccc2)C2CC2)c1,26%,-3.55
C[C@H](O)CCNC(=O)Nc1cc(Cl)c(OC(F)F)c(Cl)c1,1%,-0.07
CC[C@@H](CCNC(=O)Nc1ccccn1)NC(=O)Nc1ccccn1,-16%,2.14
CC(C)c1nn(C)cc1-c1nc2ncccn2n1,-19%,3
CC(C)N1CCN(C(=O)c2ccc(-c3cccs3)nc2)CC1,-15%,2.91
Fc1ccc([C@@H]2C=C(c3ccncc3)Nc3nc(C(F)(F)F)nn32)cc1,-27%,3.22
CCc1ccc(C(=O)N2CCCN(c3nc(C4CCOCC4)nc4c3cnn4-c3ccccc3)CC2)cc1,25%,-4.76
Cc1nc(NC(=O)c2c(Br)cnn2C)n[nH]1,-3%,0.49
Cc1nc(C(F)(F)F)sc1C(=O)NCCn1ccccc1=O,-13%,2.41
CN(C[C@H]1CCCCN1C)C(=O)c1cccc(-c2ccc3scnc3c2)c1,-15%,1.78
CCOC1CC(O)C12CCN(c1cc(N3CCOCC3)ncn1)CC2 (stereo not drawn),-5%,0.73
CC(C)c1cncnc1N1CCC(Oc2cccc(F)c2)(C(=O)O)CC1,-11%,2.13
CO[C@H]1CS(=O)(=O)C[C@@H]1NC(=O)c1cc(Cl)cn1C,-15%,1.87
CN(C(=O)c1c(C2CCC2)cnn1C)c1ncc(Br)cn1,-7%,0.91

SMILES,% Inhibition,Z score
COc1ccc(OC)c2c1cc(C(=O)NCc1ccc3c(c1)OCO3)n2C,-4%,0.66
CCOC(=O)[C@@H]1CCCCN1C(=O)c1cn(C)c2ccc(C)cc2c1=O,9%,-1.29
CC(=O)N(C)CC(=O)Nc1ccccc1NCC1CCCCC1,37%,-4.96
O=C(Cc1cccs1)N(CC(F)(F)F)C1CCOCC1,2%,-0.28
CNC(=O)C[C@H]1C(=O)NCCN1Cc1cnc(-c2cccs2)nc1,-2%,0.37
CC(=O)O[C@](C)(C#CCN1CCOCC1)c1ccccc1,-4%,0.81
Brc1cnc(N2CCCC[C@H]2c2nc(-c3ccccc3)no2)nc1,32%,-3.64
O=C1c2ccccc2NC2(CCCC2)N1CC(F)(F)F,-8%,1.56
CCOC(=O)c1nc(C(CC(C)C)NC(=O)CC2CCOC2)n[nH]1 (stereo not drawn),-1%,0.14
Cc1cc(NC(=O)[C@H](C)N2CCN(Cc3ccco3)CC2)no1,-18%,1.63
COc1cccc2c1OCCCn1cc(nn1)CCN(C(=O)CC1CCN(C)CC1)CCNC(=O)[C@H](Cc1ccccc1)NC2=O,7%,-1.29
COc1cc2c(C(=O)O)c(COc3ccc(Cl)cc3)n(C)c2cc1Br,-8%,1
COc1ccccc1N1C(=O)c2ccccc2N[C@]12C(=O)N(Cc1ccccc1F)c1ccccc12,-12%,1.67
COCc1nocc1C(=O)N1CCC(n2cncc2C)CC1,-7%,0.96
CC[C@H](O)Cn1nc(C)nc1-c1cc(C2CC2)nc2ccccc12,-12%,2.3
O=C(Nc1cccnc1)[C@H]1CCCN(c2ccc3nnnn3n2)C1,5%,-0.6
CCn1ncc(CN2CCN(C(=O)CC(C)C)[C@H]3CS(=O)(=O)C[C@H]32)c1C,0%,-0.06
Cc1ccnc(CNC2CCCC(S(C)(=O)=O)C2)c1 (stereo not drawn),-2%,0.28
COc1ccc(Cl)cc1N1CCC(N2C(=O)C3CCCN3C2=O)C1 (stereo not drawn),-1%,0.08
CO[C@H]1C[C@@H](O)C12CCN(C(=O)Nc1ccccc1F)CC2,-5%,1
O=C(NCCNCc1cnc(C2CCC2)s1)C1CCCC1,-10%,0.85

SMILES,% Inhibition,Z score
O=C(NCCc1cn2c(n1)CCCC2)C1CCC1,5%,-0.53
Cc1cc(=O)[nH]c(NCCNc2nccc(N3CCC[C@H](O)C3)n2)n1,1%,-0.18
CN(Cc1ccc(-n2cccn2)cc1)C(=O)c1cnc(O)cn1,-8%,1.24
Cc1cnc(C(=O)N2CCC[C@H]2C(=O)Nc2ccc(Cl)cc2Cl)cn1,-1%,0.11
CCS(=O)(=O)NCCn1nc(-c2ccsc2)cc1C1CC1,24%,-3.13
COC(=O)[C@@H]1CN(C(=O)c2ccc(NC(=O)NC(C)C)cc2)C[C@H]1C,0%,0.08
Nc1cccnc1-c1cnc2ccc(F)cc2c1,-8%,0.77
CN(C)C[C@H]1CN(Cc2csc(-c3cccs3)n2)CCO1,-12%,1.9
C[C@H](NC(=O)C(C)(C)c1cccnc1)c1cc(Cl)cc2c1OCC2,15%,-1.95
CCc1n[nH]c(C(=O)N[C@@H](C)C2=CCCCC2)c1C,-15%,1.72
CN1C[C@@H](NC(=O)c2ccc(Cl)c(N)c2Cl)CCC1=O,-2%,0.43
CC(=O)N1CCC(C(=O)Nc2ccc3c(c2)OCCCO3)CC1,4%,-0.48
COc1cc(-c2noc(-c3ccccc3)n2)ccc1OCc1ccccc1F,-20%,2.01
CO[C@@H]1CCC[C@@H]2CN(Cc3ccc4c(c3)CCO4)C[C@@H]21,-2%,0.38
COC[C@](C)(NC(=O)CCC(F)(F)F)c1ccccc1,-1%,0.2
COc1cccc(CNC(=O)CS(=O)(=O)C(C)(C)C)c1,-13%,1.51
COCCc1noc(CN(C2CC2)C2CCCCC2C2CCCCC2)n1 (stereo not drawn),-16%,2.98
O=C(Nc1cccc(OCCn2cncn2)c1)[C@@H]1CCCc2ccccc21,34%,-4.61
c1ccc(CN2CCC(N3C[C@H](OCC4CC4)C34CCOCC4)CC2)nc1,-5%,0.86
CN1CCCCC[C@H]1C(=O)NCCOCc1ccccc1,-15%,2.59
Cc1cc(NC(=O)N2CCN(S(=O)(=O)NC(C)C)CC2)ccn1,4%,-0.47

SMILES,% Inhibition,Z score
CCC(=O)N1CCc2ccc(OCc3nc(C(=O)N(C)Cc4ccco4)cs3)cc2[C@@H]1c1ccc(C)cc1,-24%,3.22
CC(C(=O)NCC1CCCC12NC(=O)NC2=O)c1ccc(Cl)s1 (stereo not drawn),-9%,1.23
CCNC(=O)N1CCN(C(=O)c2nccc3ccccc23)CC1,-7%,1.38
C=CCn1cc(CNCc2cccc3[nH]ccc23)c(C)n1,19%,-2.4
N#CCNC(=O)c1cccc(Br)c1Cl,6%,-0.77
CCOc1ccc2c(c1)-c1c(ssc1=S)C(C)(C)N2C(=O)CN1CCCCC1,-3%,0.66
c1ccc2cc(-c3csc(N4CCCCC4)n3)ccc2c1,-15%,2.4
CCOCc1nc2c(c(NCCc3scnc3C)n1)CCNCC2,-3%,0.63
COc1c[nH]c(C(=O)NCCc2nc(C)no2)cc1=O,11%,-1.47
CC(C)(C)NCCNC(=O)CCc1cccc(F)c1F,-14%,1.94
COc1cccc(CNS(=O)(=O)c2cc3c(cc2Br)CCN3C(C)=O)c1,-5%,0.83
Cc1nc(-c2cccc(-c3noc(-c4ccccn4)n3)c2)cs1,-25%,2.86
Cc1cc(C2CCC2)nc(N[C@H]2CCN(C(=O)c3ccccc3)C[C@@H]2O)n1,2%,-0.21
CNC(=O)c1cccc(C(=O)Nc2cc(C3CCCC3)[nH]n2)c1,-5%,0.87
CO[C@H]1CCCC[C@@H]1NC(=O)Cc1cccc(C(=O)O)c1,-6%,1.29
COc1ccccc1C(=O)Nc1nc(CCc2c[nH]c3ccccc23)n[nH]1,-3%,0.35
COc1ccc(S(=O)(=O)N2CC(Nc3ncccn3)C2)cc1Cl,-10%,1.12
Cc1cc(F)cc(-c2cc(N(C)C)ncn2)c1,-6%,0.82
CC(C)Oc1cc(Br)ccc1C(=O)NC[C@H]1COC(C)(C)O1,-13%,2.81
O=C(Nc1cc(-c2onc3c2CCCC3)cc(C(F)(F)F)c1)c1cncc(Br)c1,96%,-8.79
Cc1ccn(CCC(=O)NC[C@@H](c2ccncc2)N2CCOCC2)n1,-11%,1.55
